Experimental data as given in the supplement of paper PMC4723716.
Over roughly 3,600 compounds, “viability index relative to DMSO control” has its median near 0.81; the lowest 2% begin near 0.13. This is one part of the list.

system: Plasmodium falciparum NF54 stage V gametocytes; assay: viability index relative to DMSO control (fraction); higher = less gametocyte killing; details: 1.25 µM, incubation time: 72 h
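Also: 384-well serum-free SaLSSA: MitoTracker Red CMXRos staining with saponin lysis, high-content imaging, treated-well particle count divided by plate-mean count of DMSO wells.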

Compared with `CCN(CC)c1nc(S)nc(NC(C)(C)C)n1`, `Cc1cc(C)nc(Nc2nc(C)c3cc(C)c(C)cc3n2)n1` is lower in viability index: 0.779 for the first, 0.196 for the second.

Compared with `COc1ccc(N2C(N)=NC(N)=NC23CCCC3)cc1`, `COc1ccc(C2=Nc3cc(C(=O)NCCN4CCOCC4)ccc3CN2C(C)C)cc1` is lower in viability index: 0.607 for the first, 0.5 for the second.

First: CCCOC(=O)CSc1nc(N)c(C#N)c(-c2ccco2)c1C#N
Second: CCOC(=O)c1sc2nc(N)c(C#N)c(-c3cccs3)c2c1N
The viability index of the first is lower: 0.634 for the first, 0.739 for the second.

Going from `O=C(c1cc2n(n1)C(C(F)(F)F)CC(c1cccs1)N2)N1CCN(C(c2ccccc2)c2ccccc2)CC1` (stereo not given) to `O=C(c1cnn(-c2ccccc2)c1C(F)(F)F)N1CCN(c2ccnc3cc(Cl)ccc23)CC1`, the viability index falls from 0.691 to 0.386.

Going from `CN1CCN(C(=S)NC(=O)/C=C/c2ccc(F)cc2)CC1` to `CCOC(=O)N1CCN(C(=O)CCCCn2c(=S)[nH]c3ccsc3c2=O)CC1`, the viability index rises from 0.882 to 1.07.

Going from `CC(C)(C)c1ccc(CNC(=O)C(Cc2ccc(O)cc2)c2ccccc2)cc1` (stereo not given) to `Cc1ccc(Sc2cc(C(=O)NCc3ccco3)c3ccccc3n2)cc1`, the viability index rises from 0.829 to 1.1.

Compared with `CCCCNCCOCCOc1ccc(Br)cc1`, `CCOc1ccc2nc(C)cc(Nc3ccc(OC)cc3)c2c1` is higher in viability index: 0.577 for the first, 0.735 for the second.

First: CCN(CC)CCCN(Cc1cc2ccc(OC)cc2[nH]c1=O)C(=S)NCc1ccccc1
Second: O=C(NCc1nnc(SCC2CCCO2)n1Cc1ccccc1)c1cccc2ccccc12 (stereo not given)
The viability index of the first is lower: 0.642 for the first, 0.894 for the second.

First: CC(C)(C)C1CCc2[nH]c3ccccc3c(=O)c2C1 (stereo not given)
Second: Cc1oc2c(c1C(=O)N1CCC(C)CC1)C(=O)c1ccccc1C2=O
The viability index of the first is higher: 0.604 for the first, 0.587 for the second.

Going from `O=C(NC(=S)Nc1ccc(-c2nc3ccccc3s2)cc1)c1ccc(S(=O)(=O)N2CCCC2)cc1` to `CN(c1ccccc1)S(=O)(=O)c1ccc(C(=O)Nc2ccc(-c3nc4ccccc4[nH]3)cc2)cc1`, the viability index falls from 0.769 to 0.545.

Going from `Cc1ccnc(NC(c2ccc3ccccc3c2)c2ccc3cccnc3c2O)c1` (stereo not given) to `Cc1ccc2nc(-c3ccccc3)cc(C(=O)Nc3ccc(Cl)cc3)c2c1`, the viability index rises from 0.869 to 1.03.

Going from `O=C(CN1C(=O)c2ccccc2C1=O)Nc1cc(Cl)ccc1C(=O)O` to `COc1ccc(C2C(C(=O)c3ccccc3)=C(O)C(=O)N2c2cccc(Cl)c2)c(OC)c1` (stereo not given), the viability index falls from 1.04 to 0.845.

Going from `Oc1ccc(CN2CCCCC2)nc1-c1ccccc1` to `Cc1cc(-c2ccc(O)c(CN3CCCCCC3)c2)c2ccccc2n1`, the viability index rises from 0.746 to 0.769.

Compared with `COC(=O)C1=C(C)NC(=Cc2cc(C)n(-c3ccccc3C(F)(F)F)c2C)C1=O`, `COc1cccc(OC)c1C(=O)Nc1cc(C(F)(F)F)ccc1Cl` is higher in viability index: 0.591 for the first, 0.971 for the second.

First: Nc1c(Cl)c(Cl)nc(C(Cl)(Cl)Cl)c1Cl
Second: COC(=O)C1C(=O)C2=C(CC1C)NC(=O)CC2c1cccc(Cl)c1Cl (stereo not given)
The viability index of the first is lower: 0.661 for the first, 0.719 for the second.

Compared with `O=C(C=Cc1ccccc1)Nc1ccc(-c2nc3cc(NC(=O)C=Cc4ccccc4)ccc3[nH]2)cc1`, `c1ccc(OCCOc2ccc(Nc3c4ccccc4nc4ccccc34)cc2)cc1` is higher in viability index: 0.11 for the first, 0.525 for the second.

Going from `CCOC(=O)C1CCN(C(=O)C(=O)Nc2ccc3nc4n(c(=O)c3c2)CCCCC4)CC1` to `CCOC(=O)N1CCN(C(=O)c2cnc3ccc(C)cn3c2=O)CC1`, the viability index rises from 0.703 to 1.46.

First: C=CCn1c(COc2ccccc2C)nnc1SCC(=O)O
Second: COc1cccc(C=NNC(=O)c2ccccc2O)c1O
The viability index of the first is higher: 1.09 for the first, 1.01 for the second.

Going from `CCc1cc(=O)n(C)c(SC(CC)C(=O)Nc2ccc(F)cc2)n1` (stereo not given) to `CCn1c(SCC(=O)Nc2ccc(OC)cc2)nc2ccsc2c1=O`, the viability index falls from 1.05 to 0.83.

Compared with `COc1ccc(/C=C2\SC(=S)N(CC(=O)NNC(=O)c3ccncc3)C2=O)cc1`, `COc1ccc(OCC(=O)Nc2cccc(NC(=O)COc3ccc(OC)cc3)n2)cc1` is higher in viability index: 0.928 for the first, 1 for the second.

Compared with `Clc1ccc(Nc2nc(NCc3ccco3)c3ccccc3n2)cc1`, `Cc1cc(Nc2cccc(Cl)c2)nc2ccc(NC(=O)c3cccnc3)cc12` is higher in viability index: 0.78 for the first, 0.912 for the second.

Compared with `O=C(NNc1nc(-c2cc3ccccc3oc2=O)cs1)c1ccccc1`, `CC(C)CSc1nc2sc3c(c2c(=O)n1-c1ccccc1)CCN(Cc1ccccc1)C3` is lower in viability index: 0.891 for the first, 0.884 for the second.

Going from `Cc1cn2c3ccccc3n(CCN3CCCC3)c2n1` to `FC(F)(F)COc1nc(N2CCCCC2)nc(N(c2ccccc2)c2ccccc2)n1`, the viability index rises from 0.632 to 0.804.

Going from `CN(C)c1cc[n+](CC(=O)Nc2ccc(Cl)cc2)cc1` to `CC[n+]1c(C=Cc2ccc(N(C)C)cc2)sc2cc(NC(C)=O)ccc21`, the viability index rises from 0.785 to 0.826.

Compared with `CCOC(=O)c1ccc2c(c1)[C@@H]1C=CC[C@@H]1[C@H](c1cccc(OC)c1OC)N2`, `CCOC(=O)C1=C(C)N=c2sc(=Cc3cc(Cl)ccc3O)c(=O)n2C1c1ccc(OC)c(OC)c1` (stereo not given) is higher in viability index: 0.776 for the first, 0.942 for the second.

Compared with `CCOC(=O)c1cnc(SCC(=O)Nc2cc(C)ccc2C)nc1N`, `COCCNC(=O)C(c1ccc(C)cc1)N(Cc1ccccc1)C(=O)CCC(=O)Nc1nccs1` (stereo not given) is lower in viability index: 1.2 for the first, 0.932 for the second.

First: Cc1ccn2c(NC(C)(C)CC(C)(C)C)c(-c3ccccc3OC(=O)c3ccc(Br)cc3)nc2c1
Second: COC(=O)c1ccc(C2C3=C(CC(c4ccc(C)cc4)CC3=O)Nc3ccccc3N2C(=O)c2cccs2)cc1 (stereo not given)
The viability index of the first is higher: 0.619 for the first, 0.571 for the second.

Compared with `CCN1CCN(Cc2c(O)ccc3c(=O)c(Oc4cccc(C)c4)c(C(F)(F)F)oc23)CC1`, `OC(CN1CCN(CC=Cc2ccccc2)CC1)Cn1c2ccc(Cl)cc2c2cc(Cl)ccc21` (stereo not given) is lower in viability index: 0.762 for the first, 0.424 for the second.

Going from `Cc1sc2ncnc(Nc3ccncc3)c2c1C` to `COc1ccc(N2CCN(c3ncnc4sc(C(=O)NCc5cccnc5)c(C)c34)CC2)cc1`, the viability index rises from 0.75 to 0.951.

Compared with `Cc1nonc1C(=O)NN=Cc1ccc([N+](=O)[O-])o1`, `CC(C)c1ccc(C=NNC(=O)c2ccccc2O)cc1` is lower in viability index: 0.871 for the first, 0.776 for the second.

Compared with `COc1ccc(C=C2SC(Nc3ccc(F)cc3)=NC2=O)c(OC)c1`, `COc1ccc(Nc2ncnc3[nH]c(-c4cccc([N+](=O)[O-])c4)cc23)cc1` is lower in viability index: 0.869 for the first, 0.504 for the second.

Going from `COc1ccc(C=NNc2nc3ccccc3[nH]2)cc1OC` to `COc1ccc2nc(C)cc(NN=Cc3cccs3)c2c1`, the viability index falls from 0.847 to 0.638.

First: C=CCSc1nc(N)c2c3c(sc2n1)CN(CCC)CC3
Second: CN(c1ncnc2sc3c(c12)CCCC3)C1CCCCC1
The viability index of the first is higher: 1.05 for the first, 0.56 for the second.

First: CC(C)NCC(O)Cn1c2ccc(Cl)cc2c2cc(Cl)ccc21 (stereo not given)
Second: N=c1n(Cc2ccccc2)c2ccccc2n1CC(O)c1ccc(Cl)c(Cl)c1 (stereo not given)
The viability index of the first is higher: 0.419 for the first, 0.222 for the second.

Compared with `Cc1ccc(C)n1-c1ccc(C(=O)N2CCC(C)CC2)cc1`, `CCOC(=O)C1(Cc2ccc(OC)cc2)CCN(C(=O)c2scc3c2OCCO3)CC1` is lower in viability index: 1.04 for the first, 0.923 for the second.

Compared with `O=C(c1ccc(N2CC3CC(C2)c2cccc(=O)n2C3)c(NS(=O)(=O)c2ccc3c(c2)OCCO3)c1)N1CCN(c2ccccn2)CC1` (stereo not given), `O=C(c1ccncc1)N1N=C(c2c(-c3ccccc3)c3cc(Br)ccc3[nH]c2=O)CC1c1ccccc1` (stereo not given) is lower in viability index: 0.967 for the first, 0.733 for the second.

First: O=C(CCNS(=O)(=O)c1ccc(Br)s1)N1CCc2ccccc2C1
Second: Clc1ccc(-c2c[n+](-c3ccccc3)c3n2CCS3)cc1
The viability index of the first is higher: 0.896 for the first, 0.756 for the second.

First: Cn1ccnc1C(=O)NNc1ncc(C(F)(F)F)cc1Cl
Second: CC(Oc1ccc(Cl)cc1Cl)c1nc(-c2ccc(NC(=O)c3cccs3)cc2)no1 (stereo not given)
The viability index of the first is lower: 0.294 for the first, 1.11 for the second.

Compared with `CC(C)C[C@@H](NC(=O)[C@H](C)NC(=O)CNC(=O)[C@@H](NC=O)C(C)C)C(=O)N[C@@H](C)C(=O)N[C@@H](C(=O)N[C@H](C(=O)N[C@@H](C(=O)N[C@@H](Cc1c[nH]c2ccccc12)C(=O)N[C@H](CC(C)C)C(=O)N[C@@H](Cc1c[nH]c2ccccc12)C(=O)N[C@H](CC(C)C)C(=O)N[C@@H](Cc1c[nH]c2ccccc12)C(=O)N[C@H](CC(C)C)C(=O)N[C@@H](Cc1c[nH]c2ccccc12)C(=O)NCCO)C(C)C)C(C)C)C(C)C`, `COc1ccc(C2=C(c3ccc(OC)cc3)C3(c4ccccc4)C(=O)C2(c2ccccc2)C2C(=O)N(c4ccccc4[N+](=O)[O-])C(=O)C23)cc1` (stereo not given) is higher in viability index: 0.313 for the first, 0.585 for the second.

First: Cc1cccc(Nc2nc3nonc3[nH]c2=NN=Cc2cccs2)c1C
Second: CN(C)c1ccc(C=C2SC(=Nc3ccccc3Cl)NC2=O)cc1
The viability index of the first is higher: 0.73 for the first, 0.717 for the second.

Going from `C(#Cc1ccccc1)C[N+]1(CC#Cc2ccc(C#CC[N+]3(CC#Cc4ccccc4)CCCCC3)cc2)CCCCC1` to `COc1ccc(C2CC(=O)C3=C(C2)NC(C)=C(C(=O)OC2CCCCC2)C3c2ccc(F)cc2)cc1OC` (stereo not given), the viability index falls from 0.783 to 0.664.

Going from `CCN1C(=Cc2cccc[n+]2C)C=Cc2ccc(C)cc21` to `CCOC(=O)C1=C(N)N(c2cccc([N+](=O)[O-])c2)C2=C(C(=O)CC(C)(C)C2)C1c1ccc(Cl)cc1` (stereo not given), the viability index falls from 1.04 to 0.607.

`CCC(C)OC(=O)C1=C(C)NC2=C(C(=O)CC(c3ccc(Cl)cc3)C2)C1c1ccc(Cl)cc1` (stereo not given) gave a viability index of 0.871.
